We go through five compounds from PubChem BioAssay (NCI).

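48-hour exposure; five concentrations; linearly interpolated endpoints. GI50 is the concentration that inhibits growth by half. TGI is the concentration that stops growth completely.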 A value given as a limit tells only on which side of the number the result lay.

This experiment relates to NCI-H322M lung. Nature of the experiment: NCI-60 cell line screen, 48 h.
On to `O=C(NO)c1ccc(CNC(=O)[C@H]2Cc3c([nH]c4ccccc34)[C@H](c3ccccc3)N2)cc1`, for which the GI50 is 4.78 µM and the TGI is over 23.7 µM.
Consider `COc1ccc(C(=O)/C=C/c2cccc(Cl)c2)cc1S(N)(=O)=O`, for which the GI50 was 2.15 µM and the TGI amounted to 9.07 µM.
In the same order, the values of `COc1ccc2[nH]c(O)c(N=Nc3nc(-c4ccccc4)cs3)c2c1` are 3.99 µM and 23.4 µM.
For the compound `Cn1cc(-c2cc3nc(-c4c[nH]c5ccc(Cl)cc45)cc(N)n3n2)c2ccccc21`, the GI50 was 1.53 µM and the TGI was found to be 3.34 µM.
For `O=C(Nc1ccc(F)cc1)Nc1nc2ccc([N+](=O)[O-])cc2s1`, the GI50 is 3.25 µM and the TGI stood at 11.4 µM.
